# Laboratory results reported in the supplement of paper PMC7826260.
# The other results are listed elsewhere or left out. One pool of 16,384 single-stranded DNAs met each Rep nickase domain in vitro (1 h at 37 °C, 3 µM enzyme); the outer parts of the 90-letter strands are left off. Values are log2 of uncut reads against the no-enzyme pool; more negative means more cut, near 0 not cut, and no call is made. Reads are scaled to the total; values above 0 arise when much of the pool is cut.
# Legend:
# Assay in all cases: uncleaved DNA left, log2 of reads against the no-enzyme library (log2 ratio); higher = less cleavage (more negative = more Rep cleavage of the k-mer); sequences stand for … in CTCGTCCG…ACCGGAGA
# [1] = test system: T1, Rep nickase domain of Muscovy duck circovirus
# T1 sequence (residues 1-111, tag not shown): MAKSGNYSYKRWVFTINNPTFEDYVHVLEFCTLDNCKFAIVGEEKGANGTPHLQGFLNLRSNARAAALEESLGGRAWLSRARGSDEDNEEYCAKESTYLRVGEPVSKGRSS
# Procedure: (§1)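 A pool of 90-nt single-stranded DNAs with seven random bases just before the constant AC of the nick site (name = the seven bases) was cut by 3 µM recombinant His6-SUMO-tagged Rep nickase domain (300 nM DNA, 50 mM HEPES pH 8.0, 50 mM NaCl, 1 mM MnCl2, 1 h, 37 °C, three replicates). Uncut DNA was amplified and sequenced.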
# [2] = test system: T2, Rep nickase domain of banana bunchy top virus
# T2 sequence (residues 1-94, tag not shown): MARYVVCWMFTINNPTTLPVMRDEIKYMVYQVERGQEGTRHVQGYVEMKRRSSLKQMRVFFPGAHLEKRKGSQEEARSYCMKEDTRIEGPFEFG
# Procedure: as §1
# [3] = test system: T3, Rep nickase domain of cabbage leaf curl virus
# T3 sequence (residues 1-116, tag not shown): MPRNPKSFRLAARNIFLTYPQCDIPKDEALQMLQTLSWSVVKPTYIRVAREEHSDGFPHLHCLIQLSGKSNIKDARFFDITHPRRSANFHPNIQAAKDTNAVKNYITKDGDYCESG
# Procedure: as §1
# [4] = test system: T4, Rep nickase domain of chickpea chlorotic dwarf virus
# T4 sequence (residues 1-124, tag not shown): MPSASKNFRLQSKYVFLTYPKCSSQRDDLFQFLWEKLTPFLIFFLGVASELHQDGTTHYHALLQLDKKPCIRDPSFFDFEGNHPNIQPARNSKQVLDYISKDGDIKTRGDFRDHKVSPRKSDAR
# Procedure: as §1
# [5] = test system: T5, Rep nickase domain of faba bean necrotic yellows virus
# T5 sequence (residues 1-98, tag not shown): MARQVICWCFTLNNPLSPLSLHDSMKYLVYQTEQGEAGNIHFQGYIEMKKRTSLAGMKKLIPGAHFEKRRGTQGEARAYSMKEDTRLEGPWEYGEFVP
# Procedure: as §1
# [6] = test system: T6, Rep nickase domain of maize striate mosaic virus
# T6 sequence (residues 1-117, tag not shown): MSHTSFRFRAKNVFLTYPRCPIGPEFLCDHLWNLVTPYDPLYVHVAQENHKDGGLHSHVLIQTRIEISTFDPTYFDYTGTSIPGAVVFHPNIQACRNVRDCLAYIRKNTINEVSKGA
# Procedure: as §1
# [7] = test system: T7, Rep nickase domain of porcine circovirus 2
# T7 sequence (residues 2-116, tag not shown): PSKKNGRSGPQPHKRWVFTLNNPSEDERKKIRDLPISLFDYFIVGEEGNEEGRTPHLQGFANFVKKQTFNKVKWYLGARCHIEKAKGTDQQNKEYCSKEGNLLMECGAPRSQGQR
# Procedure: as §1
# [8] = test system: T8, Rep nickase domain of tomato golden mosaic virus
# T8 sequence (residues 1-124, tag not shown): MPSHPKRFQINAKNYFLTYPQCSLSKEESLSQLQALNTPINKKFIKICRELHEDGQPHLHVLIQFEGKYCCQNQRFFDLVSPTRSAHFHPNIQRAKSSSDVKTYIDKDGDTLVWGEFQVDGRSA
# Procedure: as §1
# [9] = test system: T9, Rep nickase domain of tomato yellow leaf curl virus
# T9 sequence (residues 1-136, tag not shown): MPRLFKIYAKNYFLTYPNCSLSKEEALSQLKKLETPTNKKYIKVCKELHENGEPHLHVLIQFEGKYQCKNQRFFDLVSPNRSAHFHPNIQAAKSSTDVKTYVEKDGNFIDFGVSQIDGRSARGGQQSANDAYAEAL
# Procedure: as §1
# [10] = test system: T10, Rep nickase domain of wheat dwarf virus
# T10 sequence (residues 1-137, tag not shown): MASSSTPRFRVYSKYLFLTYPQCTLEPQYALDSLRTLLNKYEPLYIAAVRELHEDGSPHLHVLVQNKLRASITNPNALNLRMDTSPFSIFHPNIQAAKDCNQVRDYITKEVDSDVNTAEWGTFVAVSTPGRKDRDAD
# Procedure: as §1
Sequence,uncleaved DNA left (log2) [1],uncleaved DNA left (log2) [2],uncleaved DNA left (log2) [3],uncleaved DNA left (log2) [4],uncleaved DNA left (log2) [5],uncleaved DNA left (log2) [6],uncleaved DNA left (log2) [7],uncleaved DNA left (log2) [8],uncleaved DNA left (log2) [9],uncleaved DNA left (log2) [10]
CTCCGCC,-0.0274,0.0878,0.0532,0.119,0.141,-0.194,-0.000109,0.0306,0.0041,-0.0143
AGTTGAC,0.255,0.21,0.12,0.717,0.184,0.167,0.252,0.275,0.127,0.257
TTCCCGG,0.095,0.164,0.556,1.46,-0.0185,2.01,0.138,0.14,0.0429,0.135
GGGGTGC,0.0283,0.0443,0.789,1.65,-0.0485,2.06,0.164,0.0696,-0.0453,0.12
GCGTAAA,-0.161,-0.00466,-0.0301,0.325,-0.0654,0.106,-0.183,-0.119,-0.175,0.0371
GGCGGTG,0.0213,-0.0314,-0.00142,0.383,-0.116,1.34,0.136,0.0124,-0.119,-0.1
TTTGGAG,0.145,0.0353,-0.64,-0.362,0.107,-1.15,0.179,0.0792,0.0248,-0.101
TCCAACG,0.0277,0.0712,-0.831,-0.831,0.0273,-1.18,0.0771,0.0324,-0.0242,-0.0591
AACGGTT,0.114,0.00495,0.296,1.11,0.0932,1.67,0.0364,0.109,-0.0115,-0.0361
GTCGCAC,-0.0722,0.00765,0.275,0.718,-0.00726,1.28,0.0229,0.101,0.00777,0.0323
TAGCCTG,-0.135,-0.128,-0.169,0.479,-0.16,1.48,0.0486,-0.0789,-0.128,-0.0591
CTGAGTA,0.0575,0.00288,-0.225,-0.766,0.0172,-0.74,-0.267,-0.0281,-0.0511,-0.0416
GGTCCTC,-0.0317,0.0103,0.397,0.989,0.0164,1.63,-0.0112,-0.0628,0.0341,0.0706
CGTACAT,0.0281,-0.0333,0.504,0.876,0.0625,1.31,-0.141,-0.134,-0.035,0.0337
CATGTCT,0.015,-0.365,-0.517,-2.55,-0.0484,-1.07,-0.425,-0.0546,-0.0343,-0.165
GAGGTGG,-0.185,-0.105,0.01,0.361,-0.0109,0.0377,0.0364,0.0506,-0.109,0.00363
CCAATTC,0.0424,0.00779,0.00307,-0.187,0.133,-1.03,0.141,0.112,-0.0306,-0.0133
TGTGGAA,-0.0635,-0.116,0.364,0.835,-0.057,1.36,-0.0608,-0.156,-0.0367,-0.00295
TTCCGAA,0.114,0.123,0.737,0.726,0.115,1.41,0.106,0.0284,0.163,0.163
ATTGTGG,0.0752,0.0251,-0.467,-0.556,0.0699,-1.02,0.152,0.0283,0.101,-0.00266
CAGCTTG,-0.0765,0.0138,0.466,1.54,-0.016,1.54,0.0833,0.155,0.0149,0.0401
GAAAGTC,0.0127,-0.0035,-0.203,-0.0145,0.0836,0.324,0.0577,0.0383,0.0356,0.0263
CCTGATG,0.113,-0.0173,-0.0606,0.0101,0.364,-0.636,0.16,0.172,0.157,0.108
ACCCTCA,0.0529,0.0924,0.0325,-0.774,0.117,-0.192,0.0694,0.171,0.086,0.126
TGCTGGC,-0.0277,-0.00628,0.116,0.306,-0.00264,0.253,0.0464,-0.0628,-0.0666,-0.2
GTAGAGA,0.0836,0.0932,0.654,1.26,0.162,1.49,0.209,0.123,0.138,0.13
CGGCCAC,-0.102,-0.00805,0.143,0.353,-0.0612,0.243,0.0203,-0.185,-0.0532,-0.0262
GCGTTAA,-0.148,-0.0272,0.0484,0.151,-0.0321,0.214,0.0231,-0.0313,-0.015,-0.0511
GGCCTTT,0.17,0.101,0.513,1.11,0.158,1.81,0.0945,-0.133,0.064,0.133
CTTGTTA,-0.194,-0.0224,-0.0842,-1.14,-0.0539,-0.608,-0.304,-0.135,-0.211,0.0485
